First the molecules themselves.
B1: AACAUCA (DNA:RNA)
RNA: GGGAGACCGGAAUUCAGAUUGUCCAACAUCAUUAAAUCCCGUCGUAGCCACCA
DNA 1: CAATCTGAATTCCGGTCTCCC
DNA 2: TGGTGGCTACGACGGGATT
B2: GUUAAUC (DNA:RNA)
RNA: B1 RNA with A25G, A26U, C27U, U29A, C30U, A31C
DNA 1: CAATCTGAATTCCGGTCTCCC
DNA 2: TGGTGGCTACGACGGGATT
B3: GUGCGUG (DNA:RNA)
RNA: GGGAGACCGGAAUUCAGAUUGUCCGUGCGUGUUAAAUCCCGUCGUAGCCACCA
DNA 1: CAATCTGAATTCCGGTCTCCC
DNA 2: TGGTGGCTACGACGGGATT
B4: GUGAUGU (DNA:RNA)
RNA: B3 RNA with C28A, G29U, U30G, G31U
DNA 1: CAATCTGAATTCCGGTCTCCC
DNA 2: TGGTGGCTACGACGGGATT
B5: UAUUGCG (DNA:RNA)
RNA: B1 RNA with A25U, C27U, A28U, U29G, A31G
DNA 1: CAATCTGAATTCCGGTCTCCC
DNA 2: TGGTGGCTACGACGGGATT
B6: UUCAGGG (DNA:RNA)
RNA: B3 RNA with G25U, G27C, C28A, U30G
DNA 1: CAATCTGAATTCCGGTCTCCC
DNA 2: TGGTGGCTACGACGGGATT
B7: CAAUUAA (DNA:RNA)
RNA: B1 RNA with A25C, C27A, A28U, C30A
DNA 1: CAATCTGAATTCCGGTCTCCC
DNA 2: TGGTGGCTACGACGGGATT
B8: CCCGUAU (DNA:RNA)
RNA: B1 RNA with A25C, A26C, A28G, C30A, A31U
DNA 1: CAATCTGAATTCCGGTCTCCC
DNA 2: TGGTGGCTACGACGGGATT
B9: CAACCUA (DNA:RNA)
RNA: B1 RNA with A25C, C27A, A28C, U29C, C30U
DNA 1: CAATCTGAATTCCGGTCTCCC
DNA 2: TGGTGGCTACGACGGGATT
B10: UGUCGGU (DNA:RNA)
RNA: B3 RNA with G25U, U26G, G27U, U30G, G31U
DNA 1: CAATCTGAATTCCGGTCTCCC
DNA 2: TGGTGGCTACGACGGGATT
B11: ACUGACA (DNA:RNA)
RNA: B1 RNA with A26C, C27U, A28G, U29A
DNA 1: CAATCTGAATTCCGGTCTCCC
DNA 2: TGGTGGCTACGACGGGATT
B12: GUUAUCG (DNA:RNA)
RNA: B1 RNA with A25G, A26U, C27U, A31G
DNA 1: CAATCTGAATTCCGGTCTCCC
DNA 2: TGGTGGCTACGACGGGATT
B13: GAACUCG (DNA:RNA)
RNA: B1 RNA with A25G, C27A, A28C, A31G
DNA 1: CAATCTGAATTCCGGTCTCCC
DNA 2: TGGTGGCTACGACGGGATT
B14: CCCGUGA (DNA:RNA)
RNA: B1 RNA with A25C, A26C, A28G, C30G
DNA 1: CAATCTGAATTCCGGTCTCCC
DNA 2: TGGTGGCTACGACGGGATT
B15: GAUGUGA (DNA:RNA)
RNA: B1 RNA with A25G, C27U, A28G, C30G
DNA 1: CAATCTGAATTCCGGTCTCCC
DNA 2: TGGTGGCTACGACGGGATT
B16: CCAGUAA (DNA:RNA)
RNA: B1 RNA with A25C, A26C, C27A, A28G, C30A
DNA 1: CAATCTGAATTCCGGTCTCCC
DNA 2: TGGTGGCTACGACGGGATT
B17: CUUUCGA (DNA:RNA)
RNA: B1 RNA with A25C, A26U, C27U, A28U, U29C, C30G
DNA 1: CAATCTGAATTCCGGTCTCCC
DNA 2: TGGTGGCTACGACGGGATT
B18: AGCUCCA (DNA:RNA)
RNA: B1 RNA with A26G, A28U, U29C
DNA 1: CAATCTGAATTCCGGTCTCCC
DNA 2: TGGTGGCTACGACGGGATT
B19: GUUUCCC (DNA:RNA)
RNA: B3 RNA with G27U, C28U, G29C, U30C, G31C
DNA 1: CAATCTGAATTCCGGTCTCCC
DNA 2: TGGTGGCTACGACGGGATT
B20: UCAUCUC (DNA:RNA)
RNA: B3 RNA with G25U, U26C, G27A, C28U, G29C, G31C
DNA 1: CAATCTGAATTCCGGTCTCCC
DNA 2: TGGTGGCTACGACGGGATT
B21: GCCGGUU (DNA:RNA)
RNA: B3 RNA with U26C, G27C, C28G, G31U
DNA 1: CAATCTGAATTCCGGTCTCCC
DNA 2: TGGTGGCTACGACGGGATT
B22: CGAGUCC (DNA:RNA)
RNA: B1 RNA with A25C, A26G, C27A, A28G, A31C
DNA 1: CAATCTGAATTCCGGTCTCCC
DNA 2: TGGTGGCTACGACGGGATT
B23: AGCCCCG (DNA:RNA)
RNA: B1 RNA with A26G, A28C, U29C, A31G
DNA 1: CAATCTGAATTCCGGTCTCCC
DNA 2: TGGTGGCTACGACGGGATT
B24: UCUGUAA (DNA:RNA)
RNA: B1 RNA with A25U, A26C, C27U, A28G, C30A
DNA 1: CAATCTGAATTCCGGTCTCCC
DNA 2: TGGTGGCTACGACGGGATT
B25: AUGCUGG (DNA:RNA)
RNA: B3 RNA with G25A, G29U, U30G
DNA 1: CAATCTGAATTCCGGTCTCCC
DNA 2: TGGTGGCTACGACGGGATT
B26: AUACUGA (DNA:RNA)
RNA: B1 RNA with A26U, C27A, A28C, C30G
DNA 1: CAATCTGAATTCCGGTCTCCC
DNA 2: TGGTGGCTACGACGGGATT
B27: UAUGCUA (DNA:RNA)
RNA: B1 RNA with A25U, C27U, A28G, U29C, C30U
DNA 1: CAATCTGAATTCCGGTCTCCC
DNA 2: TGGTGGCTACGACGGGATT
B28: AAACGCU (DNA:RNA)
RNA: B1 RNA with C27A, A28C, U29G, A31U
DNA 1: CAATCTGAATTCCGGTCTCCC
DNA 2: TGGTGGCTACGACGGGATT
B29: GAACUUC (DNA:RNA)
RNA: B3 RNA with U26A, G27A, G29U, G31C
DNA 1: CAATCTGAATTCCGGTCTCCC
DNA 2: TGGTGGCTACGACGGGATT
B30: GAUUGUC (DNA:RNA)
RNA: B3 RNA with U26A, G27U, C28U, G31C
DNA 1: CAATCTGAATTCCGGTCTCCC
DNA 2: TGGTGGCTACGACGGGATT
B31: AACUUCU (DNA:RNA)
RNA: B1 RNA with A28U, A31U
DNA 1: CAATCTGAATTCCGGTCTCCC
DNA 2: TGGTGGCTACGACGGGATT

Residue numbers refer to the chain shown, from its start. This is one part of the list.

In the experiment the target is T1, RBFOX1 RRM (Homo sapiens, UniProt Q9NWB1 109-208).
T1 sequence: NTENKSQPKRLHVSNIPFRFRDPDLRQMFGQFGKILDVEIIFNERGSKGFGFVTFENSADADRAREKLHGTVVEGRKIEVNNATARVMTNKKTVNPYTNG
The experiment can be described thus: EMSA; HiTS-Eq, 1 nM pool, 10 min; buffer printed only for the single-RNA assays: 10 mM Tris pH 7.5, 150 mM NaCl, 3.4 mM EDTA, 0.001% NP-40, 30 C. To be noted: tags: His6 N-terminal (pET28a); label: 5' 32P. The essentials: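 Purified RbFox RRM (wild type or mutant) was equilibrated for 10 min in 50 µL with 1 nM of a 5′-radiolabelled pool of RNA with 7 randomized nucleotides, its flanks annealed to DNA oligonucleotides, across increasing protein concentrations. Free RNA was separated by 8% native PAGE, excised, reverse-transcribed, PCR-barcoded and sequenced on an Illumina HiSeq 2500. Relative association constants came from read-count changes of each variant against the control reaction, normalised to the cognate motif.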
Take B1: the binding signal is 0.000329 KA relative to UGCAUGU.
Turning to B2, the binding signal is 0.00989 KA relative to UGCAUGU.
Consider B3, for which the binding signal is 0.0481 KA relative to UGCAUGU.
The result for B4 reads 0.0144 KA relative to UGCAUGU.
Consider B5, for which the binding signal is 0.0247 KA relative to UGCAUGU.
Under B6 stands 0.00728 KA relative to UGCAUGU; under B7, 0.0015 KA relative to UGCAUGU.
With B8, the binding signal was 0.009 KA relative to UGCAUGU.
For the molecule B9, the binding signal was 0.000318 KA relative to UGCAUGU.
For the molecule B10, the binding signal is 0.0189 KA relative to UGCAUGU.
For the molecule B11, the binding signal is 0.00469 KA relative to UGCAUGU.
For the molecule B12, the binding signal was 0.0107 KA relative to UGCAUGU.
As for B13, the binding signal was 0.0111 KA relative to UGCAUGU.
As for B14, the binding signal is 0.00709 KA relative to UGCAUGU.
Take B15: the binding signal was 0.0165 KA relative to UGCAUGU.
Consider B16, for which the binding signal is 0.00321 KA relative to UGCAUGU.
For B17, the binding signal was 0.0138 KA relative to UGCAUGU.
With B18, the binding signal is 0.00217 KA relative to UGCAUGU.
Consider B19, for which the binding signal is 0.0233 KA relative to UGCAUGU.
In the case of B20, the binding signal was 0.00423 KA relative to UGCAUGU.
Regarding B21, the binding signal was 0.0184 KA relative to UGCAUGU.
As to B22, the binding signal was 0.0069 KA relative to UGCAUGU.
As to B23, the binding signal was 0.00377 KA relative to UGCAUGU.
With B24, the binding signal was 0.00959 KA relative to UGCAUGU.
B25: the binding signal is 0.0176 KA relative to UGCAUGU.
As to B26, the binding signal is 0.00728 KA relative to UGCAUGU.
Under B27 stands 0.0112 KA relative to UGCAUGU; under B28, 0.00464 KA relative to UGCAUGU; under B29, 0.0117 KA relative to UGCAUGU.
With B30, the binding signal is 0.0204 KA relative to UGCAUGU.
As to B31, the binding signal is 0.00236 KA relative to UGCAUGU.

The values are drawn from article PMC9911399, “Two distinct binding modes provide the RNA-binding protein RbFox with extraordinary sequence specificity”.
